T1: EPO receptor (on UT-7/EPO cells) (human, UniProt P19235 25-508)
T1 sequence (looked up): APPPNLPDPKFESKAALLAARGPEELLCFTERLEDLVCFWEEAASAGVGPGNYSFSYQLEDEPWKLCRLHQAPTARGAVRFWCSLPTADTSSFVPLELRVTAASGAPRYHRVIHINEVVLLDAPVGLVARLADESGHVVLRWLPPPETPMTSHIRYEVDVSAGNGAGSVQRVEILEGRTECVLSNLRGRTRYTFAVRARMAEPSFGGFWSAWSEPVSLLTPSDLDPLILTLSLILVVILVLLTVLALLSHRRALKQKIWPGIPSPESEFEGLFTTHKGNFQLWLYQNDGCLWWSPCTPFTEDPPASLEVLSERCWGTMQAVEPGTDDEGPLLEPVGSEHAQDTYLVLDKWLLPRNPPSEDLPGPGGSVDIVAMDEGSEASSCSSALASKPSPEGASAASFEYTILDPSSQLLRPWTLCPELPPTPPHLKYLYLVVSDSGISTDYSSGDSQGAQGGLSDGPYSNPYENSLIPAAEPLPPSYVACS


Molecular target: T1, EPO receptor (on UT-7/EPO cells)
Experiment: cell-based or functional assay

Row | Binder | activity in an in vitro cell proliferation assay, relative to the EMP-1 peptide [fold] | fold decrease in potency in the UT-7/EPO in vitro bioactivity assay, relative to EMP-NfusCG1 [fold] | potency in the UT-7/EPO in vitro bioactivity assay, relative to EMP-1 [fold] | potency in the UT-7/EPO in vitro bioactivity assay, relative to EMP-NfusCG1 (average) [fold] | potency in the UT-7/EPO in vitro bioactivity assay, relative to rHuEPO [fold]
1 | EMP-NfusCG1 (Fc fusion) QIQGGTYSCHFGPLTWVCKPQGGGSGGGSGTLVTVSS[human IgG1 Fc not listed] | ~550 |  |  |  | 
2 | EMP-NfusCG4 (Fc fusion) QIQGGTYSCHFGPLTWVCKPQGGGSGGGSGTLVTVSS[human IgG4 Fc not listed] |  | 13 | 40 | ~10 | 60
